Source: the supplement of paper PMC10126150
Values marked as one replicate rest on one cluster of the flow cell; about a third of the high ones do not repeat.

Test system: ATP
Assay: switch fluorescence ratio, 500 uM ATP over buffer (Cy3 cluster intensity, sum of 5 cycles each) (fold (ratio)); higher = stronger signal-on switching upon ATP binding; sequences stand for … in TCGTCGGCAGCGTCAGATGTGTATAAGAGACAGTTTTTTTTTTTTTTTTTTTTTTTTT…TC
Details: aptamer strand: ATP DNA aptamer (quencher-CACCTGGGGGAGTATTGCGGAGGAAGG + anchor), 100 nM annealed; ATP concentration: 500 uM; one replicate
Procedure, shortened: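 Exposure to 500 uM ATP lasted 15 min at 22 °C before imaging, and a selection-buffer image was taken beforehand, for Cy3-labelled switching-strand clusters on a modified Illumina MiSeq flow-cell annealed to 100 nM quencher-labelled ATP aptamer. Five buffer/ATP cycles were run with NaOH stripping and re-annealing between them. The fluorescence ratio per cluster is summed target-cycle over summed buffer-cycle Cy3 intensity, averaged per switch-domain sequence. Clusters outside 100-1000 RFU were excluded.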

Row | Sequence | switch fluorescence ratio
1 | CCGATTCGAG | 1.12
2 | CATAGGCGAT | 1.1
3 | TAACAAGAGG | 1
4 | AATTTGCTGT | 1
5 | CAAGCCCTGT | 0.988
6 | CCTACCACAT | 1.66
7 | GGTGCCTTTT | 0.98
8 | TCATGACTA | 0.964
9 | ATTGATCTAG | 1.01
10 | GTTTTCAAT | 1
11 | TAACAATAGG | 0.988
12 | GACGCGATGA | 2.73
13 | ATTGACTACA | 1.04
14 | GAGTCAAGAT | 1.04
15 | TGCCTCGCGA | 2.04
16 | GCGTGGGTTA | 1.05
17 | CATTCGTGGA | 1.02
18 | GAAATCGGCA | 0.99
19 | GATTGTCGGT | 0.977
20 | TCGCGCCTGG | 1.09
21 | TGTTTACGTT | 1.03
22 | CAATGGAATA | 1.04
23 | CTAGCGCTTC | 1.07
24 | GGAACCTGTG | 1.02
25 | AGATATCCGT | 1.03
26 | GGAATTGCAA | 0.989

Row | Sequence | switch fluorescence ratio
27 | CTCTGATA | 1.03
28 | GAAAAGAGTA | 1.01
29 | AAGCATCGTG | 1
30 | ACTAGGATA | 0.972
31 | CGTATTGGCT | 0.946
32 | CCGAATCC | 1.47
33 | GGCATAGTAC | 1.15
34 | GCGCGCTTT | 0.96
35 | GGCAGTATTA | 0.987
36 | TGGTTCTGCC | 1.02
37 | ACGGCTACT | 1.21
38 | TAGTAAAAAG | 0.987
39 | AAATCTCTTG | 1.02
40 | CTAAAACTAT | 1
41 | CTTTGGTGGC | 0.999
42 | GTGGACGAGG | 0.961
43 | AGCAATAAAG | 1.26
44 | CTCGGCCTGA | 1.06
45 | ATATCTCTTG | 0.987
46 | TATGGATTAA | 1.01
47 | GGCTCTTTTT | 1.01
48 | TTTTATGGTC | 1.01
49 | GGAGTCCACA | 1.03
50 | GGCATGGTT | 1.05
51 | ATATTATGTG | 1
52 | TGGACCCATG | 1.04

Row | Sequence | switch fluorescence ratio
53 | ATCTTGTCAC | 1.04
54 | TCCGAGTTAA | 1.52
55 | CCGTCTGATT | 0.96
56 | GCGGCATAGT | 1.03
57 | TTGGTTCAT | 1.03
58 | TAATCGGTGG | 0.993
59 | CAGTATCAAT | 1.02
60 | CCCTCGATGA | 1.02
61 | ACTCTGACAG | 1.09
62 | ATTCTGCGGC | 1.1
63 | TTTCCCGAT | 1.37
64 | TAATGGCTAA | 1.32
65 | CTTATGGGAG | 0.984
66 | CTTTCACGAC | 1.02
67 | ACAATAGCAT | 1.05
68 | GGCTGAACGG | 1.02
69 | AGGACGCAGA | 1.24
70 | TGATTGAATC | 1.02
71 | TGGCCGGACA | 0.961
72 | TTGCAGGCGA | 1.01
73 | CGACACTATC | 2.93
74 | CGACGAGCAC | 3.82
75 | TGATGGACAT | 1.03
76 | TCGTTTGCGC | 1.02
77 | GATACTTAGG | 1.02
78 | GGGTTCAACA | 0.975

Row | Sequence | switch fluorescence ratio
79 | ACAATATGTT | 1.09
80 | GCAGCAGTCG | 1.23
81 | ATTGGGCCTG | 0.999
82 | GGTTAATTGA | 0.989
83 | TTGATTGCGC | 0.992
84 | TACAACAATA | 0.953
85 | GGCCAGTTGT | 1.04
86 | TCGGTTGAAA | 0.95
87 | TACTTTGAAT | 0.972
88 | ATGACTCCAC | 1.98
89 | AGCTCTGGGG | 0.998
90 | TGTAGTCCTG | 0.969
91 | CGGCCGGTTT | 1
92 | AATTAGGTTA | 1.06
93 | CGGTCATGCT | 0.997
94 | GATTTATTCA | 1.01
95 | ATCCCGTGCA | 1.01
96 | CTTGTTATAG | 1.02
97 | AACTCTGGTG | 1.17
98 | ATCCCCGTG | 1.22
99 | TTAACAGTCG | 0.948
100 | GGGAAGGGTC | 1.02
101 | CACTGCGGGA | 1.05
102 | TTAAGAGGAG | 1.02
103 | CAAGGAGCTC | 0.987
104 | ACCCGACGG | 1.18

Row | Sequence | switch fluorescence ratio
105 | TAATATTCGT | 0.973
106 | CTTCAGAAC | 1.02
107 | TAATTGACTG | 0.936
108 | ATAGAACGA | 1.04
109 | ACAAAGGGAT | 1.01
110 | TCGCATCGCG | 0.968
111 | GAACGTAACG | 1.09
112 | ATTAGATAGA | 1
113 | GACAAAAAAT | 0.93
114 | AGTAAATGAA | 1.02
115 | CATGCTGGTC | 1.05
116 | ATGGCGCAGG | 0.963
117 | TAATTGGAAC | 0.999
118 | CTCTACGATC | 1.37
119 | TTCTGTCCCG | 1.26
120 | GCAGCGGGCA | 0.985
121 | GGCCATGTCT | 0.973
122 | AAGCGTTCCG | 1.03
123 | GGGCTACGGT | 0.979
124 | AGATTATAGT | 0.986
125 | GTTTGTCTGT | 1
126 | TGTAATCTCG | 1.01
127 | TTGGGTCCAG | 1.01
128 | ATACCTGAAA | 1.38
129 | TACAAGGCGT | 0.979
130 | TGGCTGTGCT | 0.937

Row | Sequence | switch fluorescence ratio
131 | CCACTCTACA | 1.35
132 | GATTTGCTAT | 1.05
133 | CTTGCGTCGA | 0.994
134 | CTCTGGGGGG | 1.01
135 | CTGCAGAAGC | 1.03
136 | AGTCGTAGCT | 1.02
137 | TATTTTTTGC | 0.978
138 | ATTCGGTGTC | 0.95
139 | TTCTAATGCC | 1.03
140 | GATGTTCCAT | 0.98
141 | TCATGAGTCC | 1.06
142 | TGATCAGCAT | 1.25
143 | TAAAAAGTGC | 0.991
144 | TCTGTTTTCT | 0.954
145 | CGTGTGAAAT | 1.01
146 | ATGCCTGACC | 1.17
147 | GGTATCTGAA | 1.02
148 | TGGCCGGG | 1.01
149 | GCTTTAATCG | 0.954
150 | CAGACCCAAC | 1.16
151 | CGTCCGCGGA | 2.02
152 | ATTGTAAAGT | 0.982
153 | CTAGTGTGTT | 1.02
154 | TGTAAGTCGG | 0.96
155 | AGTATTTACA | 0.957
156 | GGTTCCCCCA | 1.08

Row | Sequence | switch fluorescence ratio
157 | TGGGACCAAG | 0.963
158 | GGGTGATTTG | 1.01
159 | GGATACATAG | 0.985
160 | CTGTATAGTC | 0.957
161 | AGGTACGGAT | 0.957
162 | TTTCGCTGGT | 1.3
163 | TCATGACTGT | 0.995
164 | TTGGAAGAAT | 1.03
165 | CACGCAGATC | 1.75
166 | ACTGTCGCGG | 1.08
167 | CACCGCGTAA | 3.75
168 | CAATAAATTG | 0.945
169 | CCAGATTGGT | 1.02
170 | ACGTATGTGT | 1.08
171 | GAGAGAACCT | 1.8
172 | GGAATGCCCT | 0.999
173 | GGGCGCACGA | 1.02
174 | CTTGCCGACA | 1.02
175 | GATTCAGTAG | 1.03
176 | TAAACTGGCG | 0.834
177 | CTGTTTTGCT | 0.956
178 | AAAGCGTGGG | 1.18
179 | AGGCTATGGA | 0.953
180 | GTCTCATGCT | 1.01
181 | AATGTGAGG | 1
182 | GGCGCCGTCT | 0.946

Row | Sequence | switch fluorescence ratio
183 | CTCAGAGCAA | 3.19
184 | TTATTGCTC | 1.09
185 | ACAAACGTCG | 1.26
186 | CAACGTGATA | 1.36
187 | GTTGTGCAGG | 1.03
188 | GGCCCAATAG | 1.96
189 | ATTTACATCG | 0.981
190 | GTAATCACAT | 0.995
191 | TTTGCCACAA | 1.97
192 | GCAGTCGGGC | 1.01
193 | ACTTCTCGGC | 1.15
194 | AGACAATAAG | 1
195 | GGTTGCGACA | 0.99
196 | TTTCACGGAC | 1.58
197 | GTTCATATGG | 1.02
198 | ATTACCCAAG | 1.04
199 | CGGCCAGGAT | 0.997
200 | AGGGAATCTG | 0.982
201 | ACACTAGGAA | 1.07
